The supplement of paper PMC11417369
± gives the standard deviation of the averaged measurements. This is one part of the list.

system: PfAP2-I AP2 domain 3 (GST-tagged); assay: gcPBM binding intensity (ln(normalized median fluorescence intensity)); higher = stronger DNA binding
Procedure, shortened: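 Alexa488 anti-GST antibody, scanned at 488 nm, detected GST-tagged P. falciparum DNA-binding domains that had been expressed in E. coli and incubated for 1 h on an Agilent 4 × 180k array. The array carried primer-extended double-stranded 36-bp intergenic genomic probes and negative controls. Binding intensity is the highest Masliner-normalised natural-log median intensity across replicate spots of either orientation of each probe.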

| Sequence | gcPBM binding intensity (ln) |
| --- | --- |
| TTTAGTTCATACTATGCACACTACGTATATTTTTAA [CACACA_site5484] | 8.88 ± 0.16 |
| ATTAATAAGAAGAAAAGTACAAAACAAAAAGATATA [XGTACX_site7473] | 8.02 ± 0.79 |
| CGTTATATATTTTATAGTACTTTTTGTAAATTTTTT [XGTACX_site7682] | 7.55 ± 0.56 |
| TTACATATTTTCATTTGTACATATTCATTTTTTTTC [XGTACX_site6988] | 7.75 ± 0.57 |
| AAATAACCCACGTGCATGCACTTCAATAACTGAACT | 11.3 ± 0.14 |
| TAAAAAAGAAAAAGAGCACACAAAAATATTTAACCT [CACACA_site8885] | 7.86 ± 0.76 |
| TATATATTTATATATTGTACACTCTTATGTAGTGTA [XGTACX_site210] | 7.48 ± 0.33 |
| ATTTTTATATTTAATACACACATAAAATCATACCAT [CACACA_site23] | 8.05 ± 0.52 |
| ATGTCAGGGAAAAAAACACACAAGAGTATGATATGT [CACACA_site2180] | 7.66 ± 0.88 |
| TATGCATATACACAAGCACACATATATATATATATA [CACACA_site8266] | 9.39 ± 0.38 |
| AAAAAAAAAAAAAAAAAAACTAATATAATAAAAATA [TGCATGCA_negctrl_site150] | 8.97 ± 0.028 |
| AAAAAAATAATATAATATTAAATCTTAGTTAATAAA [GTGCAC_negctrl_site658] | 7.08 ± 0.44 |
| TTTTTTTTTTTTTTTTCTTTTTTTTTTTTAAATAAG [XGTACX_negctrl_site418] | 8.04 ± 1.1 |
| TTTTTTTTTTTTTACACACCCAAATCACATACATAT [CACACA_site6089] | 8.62 ± 0.3 |
| TATAATAAATATACTGGTACACAAATATATATATTT [XGTACX_site7741] | 7.77 ± 0.35 |
| AACATCTTATCATCATGTACGAAGCAGTTTTATAAG [XGTACX_site2490] | 7.74 ± 0.59 |
| TGTAATTTTTTACGTTGTACATATATTAACAATATA [XGTACX_site3991] | 7.8 ± 0.2 |
| ATATTATATTTACATAGTACACTATATGTATATATA [XGTACX_site2101] | 7.85 ± 0.38 |
| TTTACACTTTTTTTTGTACACACTAAAAAGATTAAC [CACACA_site3933] | 8.05 ± 0.38 |

| Sequence | gcPBM binding intensity (ln) |
| --- | --- |
| AAAAAAAAAAAAAAAACACACAAGGATCAGATAGAT [CACACA_site7743] | 8.65 ± 0.6 |
| TTTTTCAGAAAAGAAACACACATATAAATATTTATA [CACACA_site7170] | 7.61 ± 0.55 |
| TGTTGTTACCTATATACACACATATAAATATTATAG [CACACA_site7180] | 7.89 ± 0.42 |
| AATATTATGATATTATGTACATATTAAAAGCACCAC [XGTACX_site6236] | 10.8 ± 0.7 |
| AGGGCATATATATATGCACACATACATATATACATG [CACACA_site9282] | 9 ± 0.33 |
| TATTTTTAAAAGTTAACAGAAAAAATATAAATAAAT [GTGCAC_negctrl_site295] | 7.76 ± 0.61 |
| TGGTATATACGACACACACACATATGTATAAATATA [CACACA_site6561] | 7.99 ± 0.54 |
| TTTTCCCTTTTTTCCGCACACAATAAAATAAATAAA [CACACA_site2807] | 8.66 ± 0.099 |
| TACCATAATCAATGCACACATAACAAAATATTATTA [CACACA_site2722] | 9.77 ± 0.47 |
| TGTAATAAAATAATTAGTACACATATATGTATATTT [XGTACX_site5896] | 7.76 ± 0.41 |
| TTTATCATGAACAGAAGTACATTTATATCAATGTCT [XGTACX_site6470] | 7.5 ± 0.47 |
| ATATATATATAATGTTGTACGTTTTATTCTCCCATT [XGTACX_site8071] | 9.2 ± 0.3 |
| ATATATATATATTTTACACACAATGGAGAAAAAAAT [CACACA_site644] | 9.01 ± 0.092 |
| TCATTATATTATTCTTGTACTTATATCCTTTTTTGA [XGTACX_site5320] | 7.75 ± 0.59 |
| TAAAAGTTCACCTGTACACACATATATATCTGTACA [CACACA_site5019] | 8.11 ± 0.56 |
| AAAAAATAAAAGTGGGGTACATGTCATTATGTGCAT [XGTACX_site3753] | 8.12 ± 0.64 |
| CAAAATATTATCATGATGCACTTTACACTCTAAGGT | 9.34 ± 0.18 |
| TTTTCATTCTTTTCCTTTGATTTACAATAGTATATT [GTGCAC_negctrl_site687] | 7.72 ± 0.79 |
| AAATTAAATGTAAGCACACATAAATTATACGCATAT [CACACA_site3335] | 8.04 ± 0.54 |

| Sequence | gcPBM binding intensity (ln) |
| --- | --- |
| ACATTGAATAAATAATGTACATATATAATATATATT [XGTACX_site95] | 7.65 ± 0.35 |
| TTGCAGTATTTCGGAACACACAAACATAAATATGTA [CACACA_site5307] | 7.81 ± 0.37 |
| GATCTTTCACATATATATATAAAGGATATTATGGTA [CACACA_negctrl_site522] | 7.55 ± 0.57 |
| AGTAGTCTGGAGAAAAGTACACAGTATCTGGTAGCT [XGTACX_site2544] | 7.84 ± 0.55 |
| TATAATAATCCACAAGCACACACACCCACATATATA [CACACA_site8343] | 8.31 ± 0.27 |
| AAATATTATTCATTTTGTACGTATAATTTTTAATGA [XGTACX_site3509] | 7.68 ± 0.5 |
| TTATTACACAAATGGTGTACTTTTGAGGAACCAAAA [XGTACX_site4279] | 7.94 ± 0.33 |
| ATTATATTATATTATACATGCATAATATTATATAAA [TGCATGCA_site647] | 7.8 ± 0.41 |
| AATATATACATACATACATGCACATATATATATATA [TGCATGCA_site393] | 9.16 ± 0.14 |
| ATTTGTTTAAGTCACGAACACACATATATCATCAAT [CACACA_site985] | 7.76 ± 0.6 |
| ATTATTTACCACAACACACAAATATTTACCAATCAT [CACACA_site5472] | 8.22 ± 0.52 |
| AGGCCTTTTAGTATTTCACACACGTAAATGTGTATA [CACACA_site8284] | 8.03 ± 0.74 |
| GTTTATTAGGAATTATGTACACAGTTTTATAAAGAA [XGTACX_site2994] | 8.29 ± 0.38 |
| AATATAATATATTGCACACAAAAAGTGAATTATTCT [CACACA_site1684] | 10.2 ± 0.4 |
| TAAAAAAGAACAGAAACACACAAATAAAATAAAATT [CACACA_site1758] | 7.99 ± 0.7 |
| CAAAATTGAAGGAACACACATACATATATATATATG [CACACA_site179] | 7.52 ± 0.57 |
| ATTTTAAATATTTGTGGTACCCCTTTTTTGTAACAA [XGTACX_site5590] | 8.07 ± 0.61 |
| CTTTGTGGTATAGATACACACTATATTAATATGAAC [CACACA_site7081] | 7.89 ± 0.52 |
| AAATAAAAAGGGTGCACACAAAAATATATATATATA [CACACA_site1728] | 11 ± 0.84 |
